Source: the supplement of paper PMC11348887
Counter-ions that a name gives are not always drawn. The list shows a part of the results. Cut-off read from the data, not from the text of the source: active = -2 or less and inactive = the rest. Repeats are few or missing, and single values can be far off.

Test system: hPSC-derived cortical neurons (WA09)
Assay: nuclei number (viability) z-score; higher = more surviving cells
Settings: 5 µM; treatment: days 7-14 after plating, readout day 21
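Note: nuclei counted from DAPI counterstain by automated high-content image analysis, four fields per well at ×20 in 384-well plates, with sequential b-score then z-score normalization.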

Row | SMILES | nuclei number (z-score)
1 | Clc1ccc(Nc2nnc(Cc3ccncc3)c3ccccc23)cc1 [Vatalanib (PTK787) 2HCl] | inactive: -0.613
2 | Cn1cc(-c2ccc3nnc(Sc4ccc5ncccc5c4)n3n2)cn1 | inactive: -0.395
3 | O=C1NC(=O)/C(=C/c2cccc(C(F)(F)F)c2)S1 | inactive: 0.0648
4 | Cc1cc(O)c2c(c1)C(=O)c1cc(O)cc(O)c1C2=O [Emodin] | inactive: 0.0605
5 | O=c1[nH]cnc2[nH]ncc12 [Allopurinol Sodium] | inactive: 0.724
6 | CN1CCN(C2CCN(C(=O)Nc3cc(Oc4ccc(NC(=O)C5(C(=O)Nc6ccc(F)cc6)CC5)c(F)c4)ccn3)CC2)CC1 [Golvatinib (E7050)] | active: -5.36
7 | C[N+](C)(C)CCO.[Cl-] [Choline Chloride] | inactive: -0.285
8 | CN1CCC(OC(c2ccccc2)c2ccccc2)CC1 [Diphenylpyraline HCl] | inactive: -0.107
9 | CCOC(=O)[C@H](CCc1ccccc1)N[C@@H](C)C(=O)N1Cc2cc(OC)c(OC)cc2C[C@H]1C(=O)O [Moexipril HCl] | inactive: 0.25
10 | Nc1nc(Nc2ccc3c(c2)CCC(N2CCCC2)CC3)nn1-c1cc2c(nn1)-c1ccccc1CCC2 (centres undefined) | active: -6.55
11 | CCCC(=O)OCOC(=O)C1=C(C)NC(C)=C(C(=O)OC)C1c1cccc(Cl)c1Cl (centres undefined) [Clevidipine Butyrate] | inactive: 0.949
12 | CN(C)CCCN1c2ccccc2CCc2ccccc21 [Imipramine HCl] | inactive: 0.0472
13 | C[C@H]1COc2c(N3CCN(C)CC3)c(F)cc3c(=O)c(C(=O)O)cn1c23 [Levofloxacin hydrate] | inactive: 0.709
14 | C[C@H]1COc2c(N3CCN(C)CC3)c(F)cc3c(=O)c(C(=O)O)cn1c23 [Levofloxacin] | inactive: -0.476
15 | NC(CO)C(=O)NNCc1ccc(O)c(O)c1O (centres undefined) [Benserazide HCl] | inactive: 0.79
16 | Fc1ccc([C@@H]2CCNC[C@H]2COc2ccc3c(c2)OCO3)cc1 [Paroxetine HCl] | inactive: -0.0927
17 | Nc1nc(O)c2ncn(CCC(CO)CO)c2n1 [Penciclovir] | inactive: 0.725
18 | O=c1[nH]cnc2c1ncn2[C@H]1CC[C@@H](CO)O1 [Didanosine] | inactive: 0.493
19 | CN(C/C=C/C#CC(C)(C)C)Cc1cccc2ccccc12 [Terbinafine] | inactive: 0.337
20 | CN(C/C=C/C#CC(C)(C)C)Cc1cccc2ccccc12 [Terbinafine HCl] | inactive: -0.127
21 | CN1CCN(c2ccc(OC(F)(F)F)c(Nc3ncc4c(n3)-c3c(c(C(N)=O)nn3CCO)CC4)c2)CC1 | inactive: 0.422
22 | CC1COc2c(N3CCN(C)CC3)c(F)cc3c(=O)c(C(=O)O)cn1c23 (centres undefined) [Ofloxacin] | inactive: -0.692
23 | O=C(/C=C/N1C[C@H]2C[C@@H]1CN2c1ccccn1)c1ccccc1O | inactive: 1.47

Row | SMILES | nuclei number (z-score)
24 | CCOC(=O)Nc1ccc(NCc2ccc(F)cc2)nc1N [Flupirtine maleate] | inactive: -0.105
25 | CCOc1cc(C(C)(C)C)ccc1C1=N[C@@](C)(c2ccc(Cl)cc2)[C@@](C)(c2ccc(Cl)cc2)N1C(=O)N1CCN(CCCS(C)(=O)=O)CC1 | active: -2.37
26 | O=C(O)CCCC[C@@H]1SC[C@@H]2NC(=O)N[C@@H]21 [Biotin (Vitamin B7)] | inactive: 0.275
27 | CN1CCN(c2cc3c(cc2F)c(=O)c(C(=O)O)cn3-c2ccc(F)cc2)CC1 [Difloxacin HCl] | inactive: 0.538
28 | Cn1c(Nc2ccc(C(F)(F)F)cc2)nc2cc(Oc3ccnc(-c4ncc(C(F)(F)F)[nH]4)c3)ccc21 | active: -2.14
29 | COC(=O)C1=C(C)NC(C)=C(C(=O)OC(C)C)C1c1cccc2nonc12 (centres undefined) [Isradipine] | inactive: -0.634
30 | CC(=O)SCC(Cc1ccccc1)C(=O)NCC(=O)OCc1ccccc1 (centres undefined) [Racecadotril] | inactive: 0.113
31 | N[C@@H](CSCCCO)C(=O)O [Fudosteine] | inactive: -0.26
32 | C[C@H](CCC(=O)O)[C@H]1CC[C@H]2[C@@H]3CC[C@@H]4C[C@H](O)CC[C@]4(C)[C@H]3CC[C@]12C [Lithocholic acid] | inactive: -0.476
33 | S=C(NCc1ccc2c(c1)OCO2)N1CCN(c2ncnc3c2oc2ccccc23)CC1 [Amuvatinib (MP-470)] | inactive: -0.176
34 | OCCN1C[C@H](O)[C@@H](O)[C@H](O)[C@H]1CO [Miglitol] | inactive: -0.458
35 | CC1(C)CCC2=C(O1)c1ccccc1C(=O)C2=O [Beta-Lapachone] | active: -4.8
36 | CC(=O)OCC[N+](C)(C)C [Acetylcholine Chloride] | inactive: -0.458
37 | C#C[C@]1(O)CC[C@H]2[C@@H]3CCC4=CCCC[C@@H]4[C@H]3C(=C)C[C@@]21CC [Desogestrel] | inactive: -0.39
38 | CC(C)C(=O)Nc1ccc([N+](=O)[O-])c(C(F)(F)F)c1 [Flutamide] | inactive: 0.695
39 | CC(=O)Oc1cc2c(s1)CCN(C(C(=O)C1CC1)c1ccccc1F)C2 (centres undefined) [Prasugrel] | inactive: 1.85
40 | CC(=O)Oc1cc2c(s1)CCN(C(C(=O)C1CC1)c1ccccc1F)C2 (centres undefined) [Prasugrel Hydrochloride] | inactive: 0.675
41 | Cn1cnc([N+](=O)[O-])c1Sc1ncnc2[nH]cnc12 [Azathioprine] | inactive: 0.0169
42 | CCCS(=O)(=O)Nc1ccc(F)c(C(=O)c2c[nH]c3ncc(-c4ccc(Cl)cc4)cc23)c1F [Vemurafenib (PLX4032_ RG7204)] | inactive: 1.02
43 | O=C(Nc1c(Cl)cncc1Cl)c1ccc(OC(F)F)c(OCC2CC2)c1 [Roflumilast] | inactive: 3.32
44 | CCOC(=O)OC(C)OC1=C(C(=O)Nc2ccccn2)N(C)S(=O)(=O)c2ccccc21 (centres undefined) [Ampiroxicam] | inactive: 0.916
45 | Cc1cccc(-c2[nH]c(CNc3ccccc3F)nc2-c2ccc3ncnn3c2)n1 | inactive: 10.8
46 | O=C(O)c1cc(-c2ccc(F)cc2F)ccc1O [Diflunisal] | inactive: -0.124

Row | SMILES | nuclei number (z-score)
47 | CCCCNC(=O)NS(=O)(=O)c1ccc(C)cc1 [Tolbutamide] | inactive: 0.4
48 | C[C@@H]1O[C@@H](O[C@H]2[C@H](Oc3cc(O)c(C(=O)CCc4ccc(O)cc4)c(O)c3)O[C@H](CO)[C@@H](O)[C@@H]2O)[C@H](O)[C@H](O)[C@H]1O [Naringin Dihydrochalcone] | inactive: 1.48
49 | CCn1cc(C(=O)O)c(=O)c2cnc(N3CCCC3)nc21 [Piromidic Acid] | inactive: 3.8
50 | O=S(=O)(O)CCS [Mesna] | inactive: -0.309
51 | CCOc1ccccc1OCCN[C@H](C)Cc1ccc(OC)c(S(N)(=O)=O)c1 [Tamsulosin hydrochloride] | inactive: 2.35
52 | C[C@@H](CN1CC(=O)NC(=O)C1)N1CC(=O)NC(=O)C1 [Dexrazoxane HCl (ICRF-187_ ADR-529)] | inactive: 0.326
53 | N=C(N)NCCC[C@H](N)C(=O)O [L-Arginine HCl (L-Arg)] | inactive: 0.0774
54 | Cc1nc2n(c(=O)c1CCN1CCC(c3noc4cc(F)ccc34)CC1)CCCC2 [Risperidone] | inactive: -0.649
55 | CNCCC(Oc1ccc(C(F)(F)F)cc1)c1ccccc1 (centres undefined) [Fluoxetine HCl] | inactive: -0.665
56 | Cn1nccc1Nc1nccc(-c2ccn([C@H](CO)c3ccc(Cl)c(F)c3)c(=O)c2)n1 | active: -5.47
57 | OCc1cc(C(O)CNCCCCCCOCCCCc2ccccc2)ccc1O (centres undefined) [Salmeterol Xinafoate] | inactive: -0.763
58 | CC(=O)OCC(=O)[C@@]12N=C(C)O[C@@H]1C[C@H]1[C@@H]3CCC4=CC(=O)C=C[C@]4(C)[C@H]3[C@@H](O)C[C@@]12C [Deflazacort] | inactive: -0.651
59 | CN(C)Cc1cccc(N/C(=C2\C(=O)Nc3cc(C(N)=O)ccc32)c2ccccc2)c1 | inactive: -0.0347
60 | CCN1CC(CCN2CCOCC2)C(c2ccccc2)(c2ccccc2)C1=O (centres undefined) [Doxapram HCl] | inactive: -0.913
61 | CCC(=O)O[C@]1(C(=O)CCl)[C@@H](C)C[C@H]2[C@@H]3C[C@H](F)C4=CC(=O)C=C[C@]4(C)[C@@]3(F)[C@@H](O)C[C@@]21C [Halobetasol Propionate] | inactive: 0.679
62 | CC(=O)N[C@H]1[C@H]([C@H](O)[C@H](O)CO)OC(C(=O)O)=C[C@@H]1NC(=N)N [Zanamivir] | inactive: -0.949
63 | COc1cc(Nc2nc3ccccc3nc2NS(=O)(=O)c2ccc(NC(=O)c3ccc(C)c(OC)c3)cc2)cc(OC)c1 | inactive: 0.0939
64 | CCC1=C(C)CN(C(=O)NCCc2ccc(S(=O)(=O)NC(=O)N[C@H]3CC[C@H](C)CC3)cc2)C1=O [Glimepiride] | inactive: 0.766
65 | C[C@@]12C[C@@]3(O)O[C@@H](O1)[C@]1(COC(=O)c4ccccc4)[C@H]3C[C@@]12O[C@@H]1O[C@H](CO)[C@@H](O)[C@H](O)[C@H]1O [Paeoniflorin] | inactive: 1.29
66 | Cc1coc2c1C(=O)C(=O)c1c-2ccc2c(C)cccc12 [Tanshinone I] | inactive: 7.96
67 | CCC(C)SSc1ncc[nH]1 (centres undefined) | inactive: 0.331
68 | CCOC(=O)c1ccc(NC(=O)O[C@H]2[C@H](OC(=O)Nc3ccc4c(c3)OCO4)[C@@H](OC(=O)Nc3ccc4c(c3)OCO4)[C@@H](OC)O[C@@H]2CO)cc1 | inactive: 0.514
69 | CCNC(=O)C#Cc1ccc2c(C(=Nc3ccc(CN(C)C)cc3)c3ccccc3)c(O)[nH]c2c1 | active: -4.6
